Results: article PMC9911399, “Two distinct binding modes provide the RNA-binding protein RbFox with extraordinary sequence specificity”
Numbering of substitutions follows the chain as printed; changes in the protein carry UniProt numbers. This is one part of the list.

T1: RBFOX1 RRM (Homo sapiens, UniProt Q9NWB1 109-208)
T1 sequence: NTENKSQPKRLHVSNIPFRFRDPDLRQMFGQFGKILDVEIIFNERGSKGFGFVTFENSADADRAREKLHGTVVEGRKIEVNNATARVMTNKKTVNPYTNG

B1: CGUAGUC (DNA:RNA)
RNA: GGGAGACCGGAAUUCAGAUUGUCCCGUAGUCUUAAAUCCCGUCGUAGCCACCA
DNA 1: CAATCTGAATTCCGGTCTCCC
DNA 2: TGGTGGCTACGACGGGATT
B2: AGCGAAC (DNA:RNA)
RNA: B1 RNA with C25A, U27C, A28G, G29A, U30A
DNA 1: CAATCTGAATTCCGGTCTCCC
DNA 2: TGGTGGCTACGACGGGATT
B3: UGUGGGU (DNA:RNA)
RNA: B1 RNA with C25U, A28G, U30G, C31U
DNA 1: CAATCTGAATTCCGGTCTCCC
DNA 2: TGGTGGCTACGACGGGATT
B4: UGUGUGC (DNA:RNA)
RNA: B1 RNA with C25U, A28G, G29U, U30G
DNA 1: CAATCTGAATTCCGGTCTCCC
DNA 2: TGGTGGCTACGACGGGATT
B5: CACUAUU (DNA:RNA)
RNA: B1 RNA with G26A, U27C, A28U, G29A, C31U
DNA 1: CAATCTGAATTCCGGTCTCCC
DNA 2: TGGTGGCTACGACGGGATT
B6: UGCGGAU (DNA:RNA)
RNA: B1 RNA with C25U, U27C, A28G, U30A, C31U
DNA 1: CAATCTGAATTCCGGTCTCCC
DNA 2: TGGTGGCTACGACGGGATT
B7: GCACGCC (DNA:RNA)
RNA: B1 RNA with C25G, G26C, U27A, A28C, U30C
DNA 1: CAATCTGAATTCCGGTCTCCC
DNA 2: TGGTGGCTACGACGGGATT
B8: GAGAAGG (DNA:RNA)
RNA: B1 RNA with C25G, G26A, U27G, G29A, U30G, C31G
DNA 1: CAATCTGAATTCCGGTCTCCC
DNA 2: TGGTGGCTACGACGGGATT
B9: UCCUCGG (DNA:RNA)
RNA: GGGAGACCGGAAUUCAGAUUGUCCUCCUCGGUUAAAUCCCGUCGUAGCCACCA
DNA 1: CAATCTGAATTCCGGTCTCCC
DNA 2: TGGTGGCTACGACGGGATT
B10: UGUAACU (DNA:RNA)
RNA: B1 RNA with C25U, G29A, U30C, C31U
DNA 1: CAATCTGAATTCCGGTCTCCC
DNA 2: TGGTGGCTACGACGGGATT
B11: ACAGGGG (DNA:RNA)
RNA: B9 RNA with U25A, C27A, U28G, C29G
DNA 1: CAATCTGAATTCCGGTCTCCC
DNA 2: TGGTGGCTACGACGGGATT
B12: GGAUAUU (DNA:RNA)
RNA: B1 RNA with C25G, U27A, A28U, G29A, C31U
DNA 1: CAATCTGAATTCCGGTCTCCC
DNA 2: TGGTGGCTACGACGGGATT
B13: GAGGGCC (DNA:RNA)
RNA: B1 RNA with C25G, G26A, U27G, A28G, U30C
DNA 1: CAATCTGAATTCCGGTCTCCC
DNA 2: TGGTGGCTACGACGGGATT
B14: GGGAUCA (DNA:RNA)
RNA: B1 RNA with C25G, U27G, G29U, U30C, C31A
DNA 1: CAATCTGAATTCCGGTCTCCC
DNA 2: TGGTGGCTACGACGGGATT
B15: AAGGCAG (DNA:RNA)
RNA: B9 RNA with U25A, C26A, C27G, U28G, G30A
DNA 1: CAATCTGAATTCCGGTCTCCC
DNA 2: TGGTGGCTACGACGGGATT
B16: CUCAGCC (DNA:RNA)
RNA: B1 RNA with G26U, U27C, U30C
DNA 1: CAATCTGAATTCCGGTCTCCC
DNA 2: TGGTGGCTACGACGGGATT
B17: GAGUCCA (DNA:RNA)
RNA: B9 RNA with U25G, C26A, C27G, G30C, G31A
DNA 1: CAATCTGAATTCCGGTCTCCC
DNA 2: TGGTGGCTACGACGGGATT
B18: UGUUCGU (DNA:RNA)
RNA: B9 RNA with C26G, C27U, G31U
DNA 1: CAATCTGAATTCCGGTCTCCC
DNA 2: TGGTGGCTACGACGGGATT
B19: GUAUAAG (DNA:RNA)
RNA: B9 RNA with U25G, C26U, C27A, C29A, G30A
DNA 1: CAATCTGAATTCCGGTCTCCC
DNA 2: TGGTGGCTACGACGGGATT
B20: UUACACU (DNA:RNA)
RNA: B9 RNA with C26U, C27A, U28C, C29A, G30C, G31U
DNA 1: CAATCTGAATTCCGGTCTCCC
DNA 2: TGGTGGCTACGACGGGATT

Target: T1, RBFOX1 RRM
Test: EMSA; HiTS-Eq, 1 nM pool, 10 min; buffer printed only for the single-RNA assays: 10 mM Tris pH 7.5, 150 mM NaCl, 3.4 mM EDTA, 0.001% NP-40, 30 C
Conditions: tags: His6 N-terminal (pET28a); label: 5' 32P
Method in brief: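 Purified wild-type or mutant RbFox RRM at increasing concentrations was equilibrated with 1 nM of 5′-radiolabelled RNA carrying 7 randomized nucleotides for 10 min in 50 µL. Unbound RNA was separated by 8% native PAGE and sequenced. Relative association constants came from read-count changes of each RNA species compared with the control reaction, normalised to the cognate motif.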

Row | Binder | binding signal
1 | B1 | 0.00852 KA relative to UGCAUGU
2 | B2 | 0.00728 KA relative to UGCAUGU
3 | B3 | 0.0124 KA relative to UGCAUGU
4 | B4 | 0.0333 KA relative to UGCAUGU
5 | B5 | 0.00147 KA relative to UGCAUGU
6 | B6 | 0.0154 KA relative to UGCAUGU
7 | B7 | 0.0291 KA relative to UGCAUGU
8 | B8 | 0.0122 KA relative to UGCAUGU
9 | B9 | 0.012 KA relative to UGCAUGU
10 | B10 | 0.0125 KA relative to UGCAUGU
11 | B11 | 0.00957 KA relative to UGCAUGU
12 | B12 | 0.00776 KA relative to UGCAUGU
13 | B13 | 0.015 KA relative to UGCAUGU
14 | B14 | 0.0351 KA relative to UGCAUGU
15 | B15 | 0.00951 KA relative to UGCAUGU
16 | B16 | 0.00554 KA relative to UGCAUGU
17 | B17 | 0.00503 KA relative to UGCAUGU
18 | B18 | 0.0328 KA relative to UGCAUGU
19 | B19 | 0.00787 KA relative to UGCAUGU
20 | B20 | 0.00207 KA relative to UGCAUGU
